This series relates to ATP. The experiment in a line: switch fluorescence ratio, 500 uM ATP over buffer (Cy3 cluster intensity, sum of 5 cycles each) (fold (ratio)); higher = stronger signal-on switching upon ATP binding; sequences stand for … in TCGTCGGCAGCGTCAGATGTGTATAAGAGACAGTTTTTTTTTTTTTTTTTTTTTTTTT…TC. The settings on record: aptamer strand: ATP DNA aptamer (quencher-CACCTGGGGGAGTATTGCGGAGGAAGG + anchor), 100 nM annealed; ATP concentration: 500 uM; one replicate. The essentials:
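For every switch-domain sequence, the fluorescence ratio is the mean of per-cluster values, each being summed target-cycle Cy3 intensity over summed buffer-cycle Cy3 intensity. Clusters outside 100-1000 RFU were excluded. On a modified Illumina MiSeq flow-cell, the Cy3-labelled switching-strand clusters were annealed to 100 nM quencher-labelled ATP aptamer, imaged in selection buffer and then after 15 min with 500 uM ATP at 22 °C. Five such cycles were run, with NaOH stripping and re-annealing between them.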

Among the data in the supplement of paper PMC10126150 are switch fluorescence ratio values, retold here.

Sequences with one replicate were seen in a single cluster, so their values are uncertain.
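Note: ATP exposure 15 min at 22 °C before imaging.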

Take CCCTTGCGCT: the switch fluorescence ratio amounted to 1.12.

With AGAATGAAAA, the switch fluorescence ratio stood at 1.08.

For the sequence GCTGTGCCGT, the switch fluorescence ratio stood at 1.06.

In the case of CATTGGACGA, the switch fluorescence ratio turned out to be 0.984.

On to CTCACCGGCG, for which the switch fluorescence ratio came to 1.03.

As for GCTCTAACA, the switch fluorescence ratio was 1.02.

For CAGGGCGTTA, the switch fluorescence ratio came out at 0.988.

Consider TGCGGGTGCC, for which the switch fluorescence ratio worked out at 1.02.

GAGCGATAGT: the switch fluorescence ratio was determined as 1.05.

As to GAAGGGTAA, the switch fluorescence ratio worked out at 1.02.

With AGGAAGTCA, the switch fluorescence ratio was 0.962.

On to TAATTGTAGC, for which the switch fluorescence ratio stood at 0.955.

As to AGACACCGAC, the switch fluorescence ratio amounted to 1.32.

As for AACCCGGGGA, the switch fluorescence ratio was found to be 1.02.

As for AAAGCCTATA, the switch fluorescence ratio came to 0.972.

Turning to CCGTATTCG, the switch fluorescence ratio was 1.

In the case of CTGAGCATG, the switch fluorescence ratio stood at 1.39.

Take CATCATTTTA: the switch fluorescence ratio was determined as 0.99.

With CATTGGATGA, the switch fluorescence ratio worked out at 0.975.

Turning to GCCTTGCTTG, the switch fluorescence ratio is 1.04.

TACACGCTTG: the switch fluorescence ratio is 1.03.

Regarding GGGGGCACCT, the switch fluorescence ratio turned out to be 1.

As for GTGAGTTATA, the switch fluorescence ratio is 0.99.

As for AATAGTTTTC, the switch fluorescence ratio is 0.957.

Regarding GGCCCGATGT, the switch fluorescence ratio is 0.991.

As to ATCGACACAA, the switch fluorescence ratio worked out at 1.88.

On to GGTAGCCATT, for which the switch fluorescence ratio came out at 0.962.

As to TTTTGCTACG, the switch fluorescence ratio was 1.04.

With TGGAGTTACG, the switch fluorescence ratio turned out to be 1.01.

As to CAAAGTCCG, the switch fluorescence ratio was determined as 1.15.

Take TTGGCAGATC: the switch fluorescence ratio was 1.07.

As to CACATCATGG, the switch fluorescence ratio came out at 1.04.

With TGGTAGTGGA, the switch fluorescence ratio was determined as 0.977.

As for TATCCGTCCG, the switch fluorescence ratio worked out at 1.05.

On to GTATGTATCA, for which the switch fluorescence ratio came to 0.939.

As for AGAGGTGTTC, the switch fluorescence ratio is 0.971.

Turning to TTGTAGGGCA, the switch fluorescence ratio came out at 1.05.

With CATTGCGGAT, the switch fluorescence ratio stood at 1.

For the sequence TTTCCCCAGT, the switch fluorescence ratio came to 1.02.

In the case of TAGTCATGGT, the switch fluorescence ratio stood at 1.01.

GAATTATCTT: the switch fluorescence ratio worked out at 1.03.

For the sequence TGCCGACCGT, the switch fluorescence ratio turned out to be 1.02.

Regarding GTCGGGGCGC, the switch fluorescence ratio is 1.04.

Regarding TCGTTTGTGA, the switch fluorescence ratio was found to be 1.04.

For the sequence AGATTTTA, the switch fluorescence ratio amounted to 0.966.

Regarding TGGCCCCTAG, the switch fluorescence ratio was determined as 0.987.

On to TTTAATCCGA, for which the switch fluorescence ratio turned out to be 1.07.

Take AGGCTGCCAG: the switch fluorescence ratio amounted to 0.945.

Turning to GCAGCTGCCT, the switch fluorescence ratio was found to be 1.05.

With GAGGAACGGG, the switch fluorescence ratio turned out to be 0.963.

In the case of AGATCTTAGA, the switch fluorescence ratio is 0.95.

TCCTAATTAC: the switch fluorescence ratio was found to be 1.43.

In the case of CCAATACGGG, the switch fluorescence ratio worked out at 1.64.

On to AAAAAGAGAC, for which the switch fluorescence ratio is 1.03.

For the sequence TTTGTTATCC, the switch fluorescence ratio amounted to 1.08.

On to TGTATAAAT, for which the switch fluorescence ratio was determined as 1.04.

As to TGCGCTGTAC, the switch fluorescence ratio was 3.34.

For AGCAGGAAAT, the switch fluorescence ratio came out at 1.02.

Regarding TTGGTTGCCG, the switch fluorescence ratio worked out at 1.04.

As to TGTTAAAATG, the switch fluorescence ratio stood at 0.961.

On to TCGACGGGCA, for which the switch fluorescence ratio amounted to 1.08.

Consider CAGTTATTGT, for which the switch fluorescence ratio came to 0.939.

Take ATTGATACAC: the switch fluorescence ratio amounted to 1.07.

For AGCGTCGCA, the switch fluorescence ratio stood at 1.02.

Take TCCAGAATCA: the switch fluorescence ratio stood at 0.974.

As to TTCGAGTTCG, the switch fluorescence ratio turned out to be 1.01.

In the case of TGCTGGCATC, the switch fluorescence ratio was found to be 1.02.

Take ACAGGGATTC: the switch fluorescence ratio stood at 0.986.

With AGAAGTTTCA, the switch fluorescence ratio stood at 0.982.

As for TGTGTGGCTT, the switch fluorescence ratio was 0.978.

As to GTATTAGGTA, the switch fluorescence ratio turned out to be 1.01.

For the sequence CATCTAGGTT, the switch fluorescence ratio was determined as 0.988.

On to CTTGTTACG, for which the switch fluorescence ratio was determined as 1.05.

Consider AATTGGATAG, for which the switch fluorescence ratio turned out to be 1.03.

As to CGACTAGGGT, the switch fluorescence ratio stood at 0.973.

Regarding CCAGCGTTTT, the switch fluorescence ratio was determined as 1.01.

With AAACTAAAAC, the switch fluorescence ratio came out at 1.01.

TTTCTTCTAT: the switch fluorescence ratio stood at 1.01.

For CCTCGACTAA, the switch fluorescence ratio came to 1.81.

Turning to TGGTGTGACT, the switch fluorescence ratio came to 1.02.

TCGATCCGG: the switch fluorescence ratio was found to be 0.974.

In the case of AGGAGGGACC, the switch fluorescence ratio is 0.994.

Regarding TAGGACTTTG, the switch fluorescence ratio amounted to 1.02.

For the sequence CCTGCACTT, the switch fluorescence ratio is 1.13.

On to GTGGAACCGG, for which the switch fluorescence ratio came to 1.01.

On to TACCAACAT, for which the switch fluorescence ratio came out at 1.16.

Consider CAGTTTAAG, for which the switch fluorescence ratio turned out to be 1.03.

CATACGACAA: the switch fluorescence ratio was 4.61.

Take ACGGGTGCCA: the switch fluorescence ratio is 0.979.

Regarding CTAACCCCGC, the switch fluorescence ratio was found to be 1.15.

Regarding TGGTGACGCA, the switch fluorescence ratio was 1.12.

For the sequence ACATGGTTGT, the switch fluorescence ratio came out at 1.01.

As to TGAGGCCGTG, the switch fluorescence ratio is 0.957.

AACCGGGCTA: the switch fluorescence ratio worked out at 0.993.

With TGATTTCCTG, the switch fluorescence ratio is 0.965.

On to TGCTTAAAAA, for which the switch fluorescence ratio is 0.994.

As to GTAATCGGGG, the switch fluorescence ratio amounted to 1.02.

With TTTGTAGAC, the switch fluorescence ratio turned out to be 1.01.

With CGCGGTCGCA, the switch fluorescence ratio was 1.03.

ATGTTGTCCT: the switch fluorescence ratio was 1.01.

For the sequence CTTACGGTTT, the switch fluorescence ratio is 1.

Consider TGCACACAAA, for which the switch fluorescence ratio worked out at 1.06.

AATTAATCTT: the switch fluorescence ratio was 0.943.

Turning to TGACTAACCT, the switch fluorescence ratio is 2.07.

As to TAACGAGGG, the switch fluorescence ratio was determined as 1.02.

Take TGCACTTAAA: the switch fluorescence ratio amounted to 1.02.

Regarding AGTGGTATAT, the switch fluorescence ratio is 1.01.

For ACTTAGTATT, the switch fluorescence ratio came out at 1.03.

For CAGGATAGTT, the switch fluorescence ratio stood at 0.982.

On to CGTCGTTGCC, for which the switch fluorescence ratio is 0.987.

On to ATATTCGTAG, for which the switch fluorescence ratio was found to be 0.96.

Take GCGATACGTT: the switch fluorescence ratio came to 1.87.

Regarding CACTGTTGTT, the switch fluorescence ratio turned out to be 0.934.

As to GTTAAATCCT, the switch fluorescence ratio was 1.16.

As to GCCAAGGAGC, the switch fluorescence ratio was 0.984.

AATGCACGCG: the switch fluorescence ratio is 0.967.

On to GATGCGATTG, for which the switch fluorescence ratio was found to be 1.07.

In the case of TGTGACAG, the switch fluorescence ratio is 1.

Consider TTGTACTGGA, for which the switch fluorescence ratio was determined as 0.951.

Turning to CAGGCCAGAG, the switch fluorescence ratio came to 1.02.

As to TCACTTGGGG, the switch fluorescence ratio is 1.03.

For TGAATTAAG, the switch fluorescence ratio came out at 0.952.

With CCTTGTACAC, the switch fluorescence ratio came out at 1.36.

Regarding CGCCCCA, the switch fluorescence ratio was 1.42.

As to CGTTCGAACT, the switch fluorescence ratio turned out to be 1.01.

CGGTTAAGTA: the switch fluorescence ratio was determined as 0.984.

With GTAGTCAATT, the switch fluorescence ratio amounted to 1.08.
